We go through 87 molecules from article PMC4336329 (PLoS ONE, 2015).

The structures appear in SMILES notation. Out of some 310,000 compounds screened, about 14,000 (4.5%) showed an effect of 50% or more. The effect is printed as a negative number. The list shows a part of the results.
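Note: peak tail current of the secondary pulse compared with the same well before compound.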

For the assay, the target named is human ether-à-go-go-related gene (hERG) potassium channel (human, UniProt Q12809). The assay can be described thus: primary screen, population patch clamp on CHO cells stably expressing hERG.
human ether-à-go-go-related gene (hERG) potassium channel, sequence (Q12809 whole entry, looked up): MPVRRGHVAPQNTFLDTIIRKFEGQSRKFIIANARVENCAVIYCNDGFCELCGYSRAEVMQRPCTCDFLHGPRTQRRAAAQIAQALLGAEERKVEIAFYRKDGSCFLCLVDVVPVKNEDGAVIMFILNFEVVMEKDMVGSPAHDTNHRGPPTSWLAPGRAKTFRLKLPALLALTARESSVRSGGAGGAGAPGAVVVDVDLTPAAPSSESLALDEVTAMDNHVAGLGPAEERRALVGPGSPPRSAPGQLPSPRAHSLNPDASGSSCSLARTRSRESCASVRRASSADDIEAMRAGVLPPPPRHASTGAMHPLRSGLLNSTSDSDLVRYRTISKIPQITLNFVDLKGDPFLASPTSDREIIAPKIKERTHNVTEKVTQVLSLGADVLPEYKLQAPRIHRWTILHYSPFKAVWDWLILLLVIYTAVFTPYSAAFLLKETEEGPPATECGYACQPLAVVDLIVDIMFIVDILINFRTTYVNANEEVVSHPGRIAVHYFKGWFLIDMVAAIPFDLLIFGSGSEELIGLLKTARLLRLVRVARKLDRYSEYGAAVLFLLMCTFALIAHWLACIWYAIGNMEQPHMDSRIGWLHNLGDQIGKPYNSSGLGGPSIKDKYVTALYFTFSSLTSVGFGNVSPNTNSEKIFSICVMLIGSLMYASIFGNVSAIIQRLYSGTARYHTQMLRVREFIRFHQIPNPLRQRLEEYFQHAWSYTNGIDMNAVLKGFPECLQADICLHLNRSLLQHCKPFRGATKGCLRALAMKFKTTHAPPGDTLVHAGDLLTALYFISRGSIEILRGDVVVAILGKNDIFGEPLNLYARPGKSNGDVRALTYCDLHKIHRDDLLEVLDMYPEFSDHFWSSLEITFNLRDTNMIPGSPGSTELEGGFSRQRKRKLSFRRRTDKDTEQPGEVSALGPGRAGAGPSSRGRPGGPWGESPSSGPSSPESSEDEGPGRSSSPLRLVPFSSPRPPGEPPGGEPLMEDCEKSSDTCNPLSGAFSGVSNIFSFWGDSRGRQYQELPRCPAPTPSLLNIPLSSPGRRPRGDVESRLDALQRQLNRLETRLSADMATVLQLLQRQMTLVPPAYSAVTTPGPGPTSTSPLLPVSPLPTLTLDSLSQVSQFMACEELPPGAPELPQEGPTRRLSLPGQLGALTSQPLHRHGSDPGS
As to `CCC(=O)Nc1cc(-c2nn(CC(=O)N3CCCCC3)c(=O)c3ccccc23)ccc1N1CCOCC1`, the “hERG current change (%, negative = inhibition) at 10uM” value was determined as 3.05%. As for `O=C(NC1CCCC1)c1ccc(CS(=O)(=O)Cc2ccccc2Cl)o1`, the “hERG current change (%, negative = inhibition) at 10uM” value is listed as -23.4%. Take `COc1ccc(NC(=O)COC(=O)C(CC(C)C)N2C(=O)C3CC=CCC3C2=O)cc1Cl` (stereo not drawn): the “hERG current change (%, negative = inhibition) at 10uM” value is given as -9.61%. Then `CCOCC(=O)Nc1ccc(S(=O)(=O)NCCc2ccccc2)cc1`, with -22.9%. For the molecule `CCOC(=O)C1CCN(c2ccc(C(=O)O)cc2[N+](=O)[O-])CC1`, the “hERG current change (%, negative = inhibition) at 10uM” value is -3.56%. For the molecule `COc1cc(CNCc2cccs2)cc(Br)c1OC.Cl`, the “hERG current change (%, negative = inhibition) at 10uM” value is recorded as -4.76%. For the molecule `CSc1nn2c(C(F)(F)F)cc(C(F)(F)F)nc2c1C(=O)O`, the “hERG current change (%, negative = inhibition) at 10uM” value is 10.4%. For the molecule `O=C(CCNC(=O)Cn1ccc2ccccc2c1=O)NCc1ccccn1`, the “hERG current change (%, negative = inhibition) at 10uM” value is -5.54%. For the molecule `CN(C)S(=O)(=O)c1ccc(S(=O)(=O)NCCN2CCOCC2)cc1.Cl`, the “hERG current change (%, negative = inhibition) at 10uM” value is on record as 13.9%. For the molecule `Cl.O=C(c1cccc(S(=O)(=O)N2CCOCC2)c1)N1CCN(Cc2ccc3c(c2)OCO3)CC1`, the “hERG current change (%, negative = inhibition) at 10uM” value is listed as -34.8%. Then `O=C1N(CN2CCC3(CC2)OCCO3)c2ccccc2C12OCCCO2`, with -5.2%; and `COc1ccc(CCC(=O)NNC(=O)Nc2ccc(C(C)C)cc2)cc1`, with 23.8%; and `CCC(CC)C(=O)Nc1c2c(nn1-c1ccc(F)cc1)CS(=O)(=O)C2`, with 5.88%. Consider `CCCCCCCCNC(=O)c1cccnc1SCC(=O)Nc1ccccc1OC`, for which the “hERG current change (%, negative = inhibition) at 10uM” value worked out at 2.4%. Then `NC(=O)c1ccc(CN2CCc3ccccc3C2)cc1`, with 8.4%; and `Cc1ccc(S(=O)(=O)NCC(=O)N(CC(=O)NCc2ccco2)C2CCCC2)cc1`, with 5.84%. Regarding `COc1cccc(OC)c1C(=O)Nc1ccc(S(=O)(=O)Nc2cc(C)nc(C)n2)cc1`, the “hERG current change (%, negative = inhibition) at 10uM” value stood at 12.3%. For the molecule `COC(=O)c1sc2cc(C(F)(F)F)cnc2c1-c1ccccc1`, the “hERG current change (%, negative = inhibition) at 10uM” value is -13.5%. Take `CCOC(=O)c1ccc(NC(=O)NCc2cccnc2)cc1`: the “hERG current change (%, negative = inhibition) at 10uM” value was found to be 10.1%. For `CCOC(=O)C1CCCC(NS(=O)(=O)c2ccc(NC(C)=O)cc2)C1` (stereo not drawn), the “hERG current change (%, negative = inhibition) at 10uM” value was -2.41%. `NNC(=S)NCc1cccnc1`: the “hERG current change (%, negative = inhibition) at 10uM” value is on record as -3.79%. For the molecule `CCN(CC)c1ccccc1`, the “hERG current change (%, negative = inhibition) at 10uM” value is listed as 12.7%.

As for `CCOc1ccc(NC(=O)NN2C(C)CCCC2C)cc1` (stereo not drawn), the “hERG current change (%, negative = inhibition) at 10uM” value is recorded as 13%. Then `O=C(c1ccco1)N1CCN(S(=O)(=O)c2ccc(Oc3ccccc3)cc2)CC1`, with -31.5%; and `O=C(c1cc(-c2ccncc2)nc2ccccc12)N1CCC2(CC1)OCCO2`, with -25.9%; and `CCC1CCc2c(sc(NC(=O)c3ccoc3C)c2C(N)=O)C1` (stereo not drawn), with 8.48%.

For the molecule `CCCCNc1c([N+](=O)[O-])cc(C)cc1[N+](=O)[O-]`, the “hERG current change (%, negative = inhibition) at 10uM” value was -4.19%. For `CCOc1ccc2c(c1)N(C(=O)CN1C(=O)CCC1=O)C(C)(C)C=C2C`, the “hERG current change (%, negative = inhibition) at 10uM” value is recorded as -22.8%. Then `Fc1ccc(N2CCN(/C=C/c3nnnn3-c3ccccc3)CC2)cc1`, with -32%; and `CCC(C)(C)NC(=O)C(C)OC(=O)c1nsc(Cl)c1Cl` (stereo not drawn), with 0.462%; and `CCOc1ccccc1NC(=O)c1cc(CC(C)C)oc1C`, with -0.536%. On to `Cc1cc(NC(=O)c2ccccc2)ccc1NC(=O)Cc1ccccc1`, for which the “hERG current change (%, negative = inhibition) at 10uM” value is given as 5.89%. Take `CN(CC(=O)Nc1ccccc1C(F)(F)F)C(=O)c1ccc(-c2ccc(Cl)cc2)o1`: the “hERG current change (%, negative = inhibition) at 10uM” value is -13.7%. Regarding `O=C(O)CN1C(=O)/C(=C/c2ccsc2)SC1=S`, the “hERG current change (%, negative = inhibition) at 10uM” value is 20.7%. Consider `COC(=O)c1ccc(CSc2nnc(-c3ccc4c(c3)OCO4)n2-c2ccccc2)o1`, for which the “hERG current change (%, negative = inhibition) at 10uM” value is -1.99%. As to `Cc1ccn(S(=O)(=O)c2ccc3oc(=O)ccc3c2)n1`, the “hERG current change (%, negative = inhibition) at 10uM” value is 13.3%. The result for `CCCC(=O)Nc1ccc(NC(=O)c2ccccc2F)cn1` reads 8.14%; that for `COc1ccccc1-n1c(O)c(C=NCc2ccccn2)c2ccccc2c1=O`, -8.58%; that for `COC(=O)c1sccc1NC(=O)c1cc(-c2cccc(C)c2)nc2ccccc12`, -4.79%.

For the molecule `O=C1NC2(CCCC2)C(=O)N1CCS(=O)(=O)Oc1ccccc1`, the “hERG current change (%, negative = inhibition) at 10uM” value is recorded as 4.89%.

For the molecule `CC(C)C(=O)Nc1nnc(SCC(=O)Nc2ccc3c(c2)OCO3)s1`, the “hERG current change (%, negative = inhibition) at 10uM” value is 10.9%. In the case of `CC1(C(=O)N/N=C/c2cc3c(cc2Br)OCO3)CC1(Br)Br` (stereo not drawn), the “hERG current change (%, negative = inhibition) at 10uM” value is recorded as -7.65%. Turning to `CCN(CC)S(=O)(=O)c1ccc(NC2c3ccccc3C(=O)N2Cc2ccco2)cc1` (stereo not drawn), the “hERG current change (%, negative = inhibition) at 10uM” value was -19.2%. Consider `COC(CNC(=O)c1c[nH]c2ccc(S(=O)(=O)N(C)c3ccc(F)cc3)cc2c1=O)OC`, for which the “hERG current change (%, negative = inhibition) at 10uM” value was 3.15%. The result for `COc1cc2cc(CCOC(=O)c3ccc(C#N)cc3)oc(=O)c2cc1OC` reads -37.9%; that for `Cc1ccc(C(C(=O)NC2CCCC2)N(C(=O)CNC(=O)c2ccco2)c2ccccc2)o1` (stereo not drawn), -32%; that for `Cc1ccc(C(=O)OC(C)C(=O)N(C)C2CCCCC2)cc1S(=O)(=O)N1CCCCC1` (stereo not drawn), -12.8%. For `Nc1c(C(=O)NCC2CCCO2)c2nc3ccccc3nc2n1Cc1ccco1` (stereo not drawn), the “hERG current change (%, negative = inhibition) at 10uM” value was 10.5%. For `CC1(C)CC(NC(=O)c2cc([N+](=O)[O-])cc([N+](=O)[O-])c2)CC(C)(C)N1`, the “hERG current change (%, negative = inhibition) at 10uM” value is on record as 24.8%. `NC(=O)C1(N2CCCCC2)CCN(C(=S)NC2CCCC2)CC1`: the “hERG current change (%, negative = inhibition) at 10uM” value is -7.41%. `COCCn1nnnc1C(c1ccc(OC)c(OC)c1)N1CCN(C(=O)c2ccco2)CC1` (stereo not drawn): the “hERG current change (%, negative = inhibition) at 10uM” value stood at 7.36%. Then `CCC(C)(C)n1nnnc1C(c1cc2ccc(OC)cc2[nH]c1=O)N1CCCCC1` (stereo not drawn), with -26.3%. In the case of `COc1ccc(CCNC(=O)c2cc3cc(F)ccc3nc2C)cc1OC`, the “hERG current change (%, negative = inhibition) at 10uM” value was 3.1%. In the case of `Cc1[nH]n(C)c(=O)c1N=Nc1ccc(S(C)(=O)=O)cc1`, the “hERG current change (%, negative = inhibition) at 10uM” value was -42.6%. For `O=C1NCC(COCc2ccccc2)O1` (stereo not drawn), the “hERG current change (%, negative = inhibition) at 10uM” value amounted to 3.36%. For the molecule `Cc1ccccc1OCC(=O)NC1=NCCS1`, the “hERG current change (%, negative = inhibition) at 10uM” value is given as 8.92%.

For `CN=C1S/C(=C\c2c(OC)cc(OC)cc2OC)C(=O)N1C`, the “hERG current change (%, negative = inhibition) at 10uM” value was determined as 20.4%. The result for `Cc1ccc(-c2nnn(CC(=O)N(c3ccc4c(c3)OCCO4)C(C(=O)NCC3CCCO3)c3ccc(F)cc3)n2)o1` (stereo not drawn) reads 11.3%. As for `O=C(c1ccccc1)c1cnc(Nc2ccccc2Cl)s1`, the “hERG current change (%, negative = inhibition) at 10uM” value is listed as -11.7%. The result for `Cc1ccc(S(=O)(=O)c2cn(CC(=O)Nc3ccccc3)c3ccc(F)cc3c2=O)cc1` reads 7.96%; that for `CC1(C)Cc2cccc(OCC(=O)NCc3ccc(F)cc3)c2O1`, -13.7%; that for `C/C(=N\O)c1ccco1`, 22%.

On to `Cn1c(=O)cc(SCC(=O)NCCN2CCN(c3ccccc3F)CC2)c2cc(Cl)ccc21`, for which the “hERG current change (%, negative = inhibition) at 10uM” value is listed as -54.1%. The result for `O=C(Nc1ccccc1F)Nc1ccccc1Br` reads 2.3%; that for `O=C(NCC(=O)N1CCN(S(=O)(=O)c2ccccc2C(F)(F)F)CC1)c1sc2ccccc2c1Cl`, 12.9%. Take `COc1ccc(C(=O)CC(=O)C(=O)Nc2cc([N+](=O)[O-])ccc2OC)cc1`: the “hERG current change (%, negative = inhibition) at 10uM” value is on record as 17.6%. On to `Cc1ccccc1-n1c2nc(=O)n(C)c(=O)c-2cc2ccccc21`, for which the “hERG current change (%, negative = inhibition) at 10uM” value turned out to be 9.67%. As for `COc1ccc(S(=O)(=O)N(C)CC(=O)NCC2CCCO2)cc1OC` (stereo not drawn), the “hERG current change (%, negative = inhibition) at 10uM” value worked out at 18.6%. `CCN1C(=O)N/C(=C/c2ccc(Sc3ccc(C)cc3)o2)C1=O`: the “hERG current change (%, negative = inhibition) at 10uM” value was found to be 21.5%. The result for `Cc1nc(N)c(Cc2ccccc2F)c(N)n1` reads 4.49%; that for `COC(=O)C(C)Sc1nc2c(c(=O)[nH]c(=O)n2C)n1CCCc1ccccc1` (stereo not drawn), -72.2%. Then `C[N+](C)(C)c1ccccc1.[I-]`, with 23.4%; and `O=C(Nc1ccccc1Oc1ccsc1C(=O)O)c1ccccc1`, with 17.2%; and `Nc1c(C(=O)OCC(=O)Nc2ccc(Cl)cc2[N+](=O)[O-])[nH]c(=O)[nH]c1=O`, with -3.1%.

For `CC1=NNC(=O)C1CC(=O)N/N=C/c1ccc(C)o1` (stereo not drawn), the “hERG current change (%, negative = inhibition) at 10uM” value is listed as 10.7%.

`COc1ccc(CCN=C(N)NS(=O)(=O)c2ccc(C)c(C)c2)cc1OC`: the “hERG current change (%, negative = inhibition) at 10uM” value amounted to 10.3%. With `COc1ccc(NC(=O)CN(c2ccc(OC)c(Cl)c2)S(=O)(=O)c2ccccc2)cc1`, the “hERG current change (%, negative = inhibition) at 10uM” value is -2.1%. Take `Cc1cc(C)cc(NC(=O)N2CCCC2C(=O)Nc2ccc(-n3cnnn3)c(C)c2)c1` (stereo not drawn): the “hERG current change (%, negative = inhibition) at 10uM” value is reported as -12.3%. Then `O=C(COc1ccc(S(=O)(=O)N2CCOCC2)cc1)Nc1ccc(Cl)c(C(F)(F)F)c1`, with -13.1%; and `Cc1ccc(-c2nnn(CC(=O)N(c3ccccc3)C(C(=O)NCC3CCCO3)c3cccs3)n2)o1` (stereo not drawn), with 24.6%; and `Cc1ccc(OC(C)C)c(CN(CCO)CCO)c1.Cl`, with 3.12%. The result for `CCN(CCNC(=O)c1ccc(CSc2nc3ccncc3[nH]2)cc1)c1ccccc1` reads -8.51%; that for `COc1cccc(-n2nnnc2SCC(=O)Nc2cccc(NC(C)=O)c2)c1`, 4.09%; that for `O=C(NCc1ccccc1Cl)C1CCCN(c2ncnc3c2nc2n3CCCCC2)C1` (stereo not drawn), -60.8%. As to `COc1ccc(C(=O)N/C(=C\c2cc(OC)c(OC)cc2[N+](=O)[O-])C(=O)NCC(=O)O)cc1`, the “hERG current change (%, negative = inhibition) at 10uM” value was found to be 61%. Consider `O=C(NC1CCCCCC1)c1ccc(OCC2CCCO2)cc1` (stereo not drawn), for which the “hERG current change (%, negative = inhibition) at 10uM” value is -12%. For the molecule `CC1(CCc2ccccc2)NC(=O)N(CC(=O)Nc2ccc(S(N)(=O)=O)cc2)C1=O` (stereo not drawn), the “hERG current change (%, negative = inhibition) at 10uM” value is reported as 17%.
